# Laboratory results as given in the supplement of paper PMC4166925.
# ± gives the standard deviation of the averaged measurements. Over roughly 33,000 sequences, “E-score (dimensionless, -0.5 to 0.5)” has its median near -0.049; the highest 2% begin near 0.37. Some of the results follow.
# Tested on: T1, PmTbr T-box DNA-binding domain (GST fusion)
# T1 sequence: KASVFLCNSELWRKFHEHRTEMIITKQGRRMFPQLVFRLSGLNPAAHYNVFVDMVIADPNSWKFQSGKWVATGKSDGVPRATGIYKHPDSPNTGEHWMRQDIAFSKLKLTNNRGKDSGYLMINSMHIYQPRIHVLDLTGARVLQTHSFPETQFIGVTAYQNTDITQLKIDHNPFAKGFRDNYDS
# Assay: PBM E-score of 8-mer (E-score (dimensionless, -0.5 to 0.5)); Tbr is Tbrain of the sea star Patiria miniata (Pm) or the sea urchin Strongylocentrotus purpuratus (Sp); higher = stronger binding preference; most listed sequences are background and not binding sites
# Conditions: the construct has about 5 more residues each side
# How it was run: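 Each ungapped 8-mer received an enrichment E-score from the Universal PBM Analysis Suite, averaged over duplicate arrays. The proteins were Tbr T-box DNA-binding domains, covering the whole T-box plus about five flanking residues, fused to GST and expressed in BL21 E. coli at 20 °C before glutathione affinity purification. Universal Agilent oligonucleotide arrays were made double-stranded by primer extension and incubated with 200 nM protein in PBS (pH 7.5). The arrays were then scanned and quantified, and every 8-mer was scored from probe intensities.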
row,Sequence,PBM E-score of 8-mer
1,ATTTTTAA,-0.145 ± 0.036
2,CGATGGTA,-0.0934 ± 0.015
3,GCAACACC,0.455 ± 0.0097
4,CCACCCAA,0.0368 ± 0.047
5,GACGATGC,-0.117 ± 0.015
6,AATAACGG,-0.0235 ± 0.014
7,TCGCGAGA,0.334 ± 0.0074
8,AGCTACGG,-0.169 ± 0.0041
9,GCCGTTAC,-0.117 ± 0.026
10,CTCCTGTC,-0.0333 ± 0.029
11,ATAAGGAG,-0.0477 ± 0.013
12,GGTGGCAC,0.38829 ± 0.00023
13,CTCCATCA,0.123 ± 0.077
14,AATGGGCA,-0.203 ± 0.024
15,CGAAACCG,0.0109 ± 0.086
16,CAACTATC,0.0849 ± 0.039
17,GCCACAGA,-0.00231 ± 0.073
18,CAACAAGG,0.0409 ± 0.046
19,CTGTGCAC,0.0968 ± 0.0069
20,AAAAATGA,-0.0842 ± 0.076
21,AACAGTGT,0.224 ± 0.048
22,AGCCACAT,-0.0747 ± 0.023
23,CGCGACAA,0.336 ± 0.0038
24,CCCATTTA,0.0289 ± 0.005
25,CACAAGCC,-0.0612 ± 0.095

row,Sequence,PBM E-score of 8-mer
1,CGACGATC,-0.0963 ± 0.064
2,ACGTCACT,0.2087 ± 0.0019
3,CTCACTTC,0.264 ± 0.0028
4,GATTTGGC,0.249 ± 0.01
5,AGCATAGA,-0.107 ± 0.065
6,ATGCCCGA,0.0118 ± 0.085
7,TAATATTA,-0.139 ± 0.049
8,CCTCTCGC,0.222 ± 0.013
9,ATCGCAAT,0.136 ± 0.061
10,CGGCGCAA,-0.108 ± 0.011
11,CCACATAA,-0.0596 ± 0.046
12,CTTCTTTC,-0.208 ± 0.021
13,GCGCGAGA,0.357 ± 0.014
14,CGTCAAGA,0.162 ± 0.068
15,TAGACCTA,-0.256 ± 0.031
16,GCTTAAGC,-0.292 ± 0.0039
17,CTCGGATA,-0.214 ± 0.025
18,CGTAAACC,-0.157 ± 0.028
19,ATGGGGTC,-0.228 ± 0.015
20,TGAGGTAA,-0.0864 ± 0.037
21,AAAGGAGG,-0.165 ± 0.035
22,CAATAATC,-0.0282 ± 0.026
23,CGAGGGCC,-0.193 ± 0.054
24,ATGATCAT,-0.111 ± 0.024
25,GATACACC,0.149 ± 0.072

row,Sequence,PBM E-score of 8-mer
1,AGGCCGGA,-0.191 ± 0.011
2,ACGAACGT,0.0835 ± 0.007
3,CATAGACG,-0.0237 ± 0.038
4,GAAGTCTC,0.102 ± 0.062
5,CGGAAACA,-0.089 ± 0.047
6,CATGTTAA,0.0464 ± 0.07
7,ATCCCGAG,-0.13 ± 0.051
8,ATTAGGCC,-0.314 ± 0.016
9,GAGGAATA,-0.274 ± 0.02
10,AATCATCG,0.0556 ± 0.04
11,GGGCGACA,0.305 ± 0.024
12,GCCGCGAC,0.0997 ± 0.071
13,TAGAATGA,0.0191 ± 0.0097
14,ACTTTTTG,0.233 ± 0.061
15,GTACTACA,-0.136 ± 0.045
16,ACCAGTCC,-0.0849 ± 0.0027
17,AGCTACTA,-0.148 ± 0.016
18,CACTTGAC,0.338 ± 0.033
19,GACTTATC,-0.0556 ± 0.021
20,CGGTCCAC,-0.155 ± 0.0022
21,AAGAGCCG,-0.104 ± 0.013
22,GGGCACGA,-0.153 ± 0.021
23,GCCCCGGC,-0.356 ± 0.021
24,AGAGACGC,-0.246 ± 0.01
25,CGGTTGAA,-0.16 ± 0.04

row,Sequence,PBM E-score of 8-mer
1,GCTATGCA,-0.125 ± 0.016
2,AGTGGAGG,-0.0432 ± 0.017
3,ATCGGAGG,-0.0779 ± 0.0076
4,ACATGCGG,-0.0519 ± 0.054
5,ATTCTCAC,0.435 ± 0.017
6,GTACAGGA,-0.327 ± 0.024
7,ACGCCGTG,0.234 ± 0.027
8,ACTGTAAT,-0.0745 ± 0.04
9,ATCTACTC,-0.321 ± 0.0036
10,CTAGAGCA,-0.154 ± 0.046
11,AGATATGG,-0.26 ± 0.047
12,CCTGTAAA,0.0528 ± 0.045
13,CCCTGAAA,-0.058 ± 0.0072
14,AAAGCCAA,-0.217 ± 0.011
15,CCACGAGC,-0.0272 ± 0.08
16,ACTTTTAA,-0.264 ± 0.016
17,AGTTTCCC,-0.116 ± 0.012
18,CGCGAAGA,0.363 ± 0.011
19,GATCGGGC,-0.106 ± 0.071
20,ACCGCGCT,0.0428 ± 0.014
21,ACTGCGGA,-0.259 ± 0.0077
22,CCGACTGC,-0.0802 ± 0.031
23,ACTCAGCT,-0.0519 ± 0.0062
24,ATCTGCAA,-0.12 ± 0.016
25,AGGAACGA,-0.141 ± 0.068

row,Sequence,PBM E-score of 8-mer
1,ACTCTCGC,0.2 ± 0.069
2,CAGACTTC,-0.202 ± 0.016
3,AGCACGCC,0.0358 ± 0.042
4,AGGAGGTA,-0.0739 ± 0.034
5,GCAGACAA,-0.0224 ± 0.054
6,ATTTTAGA,-0.0317 ± 0.08
7,GGTCCAAA,-0.116 ± 0.0032
8,AGACCCAC,0.0312 ± 0.0042
9,ATGGGTTA,-0.00983 ± 0.068
10,GGCCCGAA,-0.228 ± 0.055
11,AGAGAGAT,-0.138 ± 0.032
12,CCGCTTCA,0.00946 ± 0.017
13,ATGTACAT,-0.141 ± 0.055
14,CGTACCAG,-0.184 ± 0.022
15,AGCCGTCA,0.161 ± 0.0066
16,TTGGACAA,-0.0267 ± 0.083
17,AACCATGG,-0.00506 ± 0.043
18,AGCCACGG,-0.119 ± 0.013
19,AGATCGTA,0.0776 ± 0.06
20,ATGGTAAT,-0.145 ± 0.033
21,CAGTGCAG,-0.188 ± 0.01
22,ACGCACGC,0.0524 ± 0.077
23,CGTAGCCA,-0.224 ± 0.017
24,CTAGGTGA,0.398 ± 0.014
25,GCGCTTGA,-0.0391 ± 0.02

row,Sequence,PBM E-score of 8-mer
1,ACTGAAGG,-0.0601 ± 0.011
2,AAACCTGA,0.0859 ± 0.12
3,ATATTACA,0.11 ± 0.012
4,AGTCTAGC,-0.096 ± 0.025
5,GACATCCC,-0.0596 ± 0.038
6,AATATAAA,-0.136 ± 0.075
7,GAATCGTC,-0.134 ± 0.0042
8,CTTGGTAA,-0.0337 ± 0.0022
9,CGGTTGGC,0.0524 ± 0.0091
10,GGCAGAAC,-0.108 ± 0.021
11,ATTCGAGG,-0.0453 ± 0.059
12,CTCAACAA,-0.0469 ± 0.016
13,ATCTTTGG,-0.0524 ± 0.014
14,GATCCTAA,-0.0882 ± 0.11
15,CCAGAGGG,-0.293 ± 0.04
16,ACAGGCAT,-0.00683 ± 0.051
17,AGCCGGAG,-0.116 ± 0.1
18,AGGATCGA,0.0479 ± 0.045
19,CCTGAACC,-0.233 ± 0.068
20,GTATACAC,-0.0081 ± 0.0025
21,CCATGTCA,0.0353 ± 0.054
22,GGCAGCCC,-0.155 ± 0.029
23,GAAGGCAC,0.0792 ± 0.019
24,AGCAAGCG,-0.0283 ± 0.0063
25,CCTTGGAC,-0.13 ± 0.0035

row,Sequence,PBM E-score of 8-mer
1,CTTAGTGC,0.109 ± 0.052
2,GGGGACAC,0.0834 ± 0.069
3,GTTGCGCA,0.038 ± 0.051
4,TGTCCAAA,-0.0314 ± 0.019
5,GTGTCCGA,0.169 ± 0.013
6,AAGACCTT,-0.285 ± 0.011
7,ATTCCGTC,0.0347 ± 0.046
8,CACCGGGC,-0.108 ± 0.015
9,GGGGGTGA,0.2941 ± 0.0011
10,AACCCACT,-0.167 ± 0.0074
11,AGGAGGAT,-0.124 ± 0.071
12,AAGCCTAC,-0.215 ± 0.039
13,ACCAGCCT,-0.14 ± 0.082
14,GCTTGTCC,-0.134 ± 0.0022
15,CCAGCGAG,0.0399 ± 0.024
16,CCCGCTTC,0.153 ± 0.043
17,GTTAAAAA,0.0142 ± 0.12
18,ATCAATTC,0.0567 ± 0.048
19,CTTGGAAA,-0.0932 ± 0.023
20,GCCACCGA,0.047 ± 0.0033
21,AGACCGAC,0.0123 ± 0.075
22,ACGTTATC,0.0382 ± 0.014
